# Experimental data: PubChem BioAssay (NCATS)
# Where “and” joins values, the source holds several entries; their conditions need not be identical. Identical values can stand only once. This list was built around the results that the source calls inconclusive (neither active nor inactive); the mix of calls is not that of the screen. For some of these results: Potencies beside an inconclusive call are fits to weak or partial responses and may not hold up. Calls of active or inactive are those of the source. Unless noted, the call rests on the fitted dose curve; in most records, active means well fitted curve in the direction sought with a large enough effect; inconclusive means small, poorly fitted or top-dose-only effect, or another doubt; inactive means no such curve, though single readings can be large; an effect the other way counts as inactive or inconclusive.
# Tests used:
# [1] = NFAT Signaling Pathway (AID 444; active means well fitted curve in either direction with a large enough effect, not every such curve was filed as active; inconclusive means small, poorly fitted or top-dose-only effect, or another doubt;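 further: carbachol stimulus at about its EC50 of 1 µM final; on the % scale 0 is the no-effect control and ±100 the full control effect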); details: Jurkat NFAT-bla M1, carbachol, beta-lactamase ratio, 5 h; at 7.69 µM (top of the series) unless noted
# How it was run: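 Jurkat cells carrying an NFAT-driven β-lactamase reporter and co-transfected muscarinic M1 receptor were treated with compound plus carbachol (1 uM final, an EC50 level) for 5 h at 37 °C. CCF4 loading followed for 1 h at RT; 460/530 nm ratio gave %activity.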
# [2] = Stat Signaling Pathway (AID 446; active means well fitted curve in either direction with a large enough effect, not every such curve was filed as active; inconclusive means small, poorly fitted or top-dose-only effect, or another doubt;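 further: ME-180 cervical cancer cells given 40 pM IL-6 alongside compound; SIE-controlled beta-lactamase reporter measured as 460/530 nm FRET emission ratio; top concentration of the series differs between compounds; on the % scale 0 is the no-effect control and ±100 the full control effect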); details: ME-180 SIE beta-lactamase reporter, IL-6 stimulated, 5 h; at 7.69 µM (top of the series) unless noted
# How it was run: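 Emission at 460 and 530 nm (excitation 405 nm) reports SIE-controlled beta-lactamase in ME-180 cells. Cells received compound with 40 pM IL-6 for 5 hrs at 37 C; data scaled between 300 pM IL-6 and 125 nM JAK-inhibitor controls.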
# [3] = qHTS Assay for Identification of Small Molecule Agonists for Hypoxia Response Element Signaling Pathway (AID 914; active means well fitted activation curve with a large enough effect in the signal ratio, with a control signal flat, not every such curve was filed as active; inconclusive means small, poorly fitted or top-dose-only effect, or effect the other way, or a change in a side signal; the % refers to the signal ratio; further: potency means the concentration at half of the fitted maximal effect); details: ME-180 (cervical carcinoma) HRE-bla reporter, beta-lactamase ratio, CoCl2, 17 h; activation: hits give high values
# How it was run: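 HRE-bla ME-180 assay for agonist-like enhancement of an EC50 CoCl2 stimulus: 17 h at 37 degrees Celsius, CCF4 for 2.5 h, ratiometric 460/530 nm signal converted to %Activity and fitted to AC50.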
# [4] = Confirmatory qHTS for small molecule stabilizers of the endoplasmic reticulum resident proteome: Secreted ER Calcium Modulated Protein (SERCaMP) assay (AID 1508628); further: nearly all actives have a fitted effect of over 40% in size; further: potency means the concentration at half of the fitted maximal effect
# How it was run: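 Reporter secretion upon ER calcium depletion (100 nM thapsigargin, 4 h, 37C) is measured as medium luminescence with coelenterazine, after 16 h compound pretreatment of SH-SY5Y-GLuc-SERCaMP cells; primary at three concentrations up to 38.3 uM, follow-up at 11 (up to 76.6 uM).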
# [5] = Cell Viability qHTS for small molecule stabilizers of the endoplasmic reticulum resident proteome (AID 1508629); details: cell viability counter-screen, 100 nM thapsigargin for final 4 h;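 further: potency means the concentration at half of the fitted maximal effect; compound exposure about 46 h in total before the viability read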
# [6] = Primary qHTS for small molecule stabilizers of the endoplasmic reticulum resident proteome: Secreted ER Calcium Modulated Protein (SERCaMP) assay (AID 1508630); details: SH-SY5Y GLuc-SERCaMP (Gaussia luciferase released on ER calcium loss) secretion, thapsigargin, luminescence; activity change, negative = inhibition: at 38.4 µM (top of the series) unless noted; further: potency means the concentration at half of the fitted maximal effect
# How it was run: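 The SH-SY5Y reporter protocol was run at 3 concentrations up to 38.3 uM (primary) or 11 concentrations (follow-up): 16 h compound, 100 nM thapsigargin for 4 h, then extracellular luciferase luminescence.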
# [7] = target: 3',5'-cyclic-AMP phosphodiesterase 4B (Homo sapiens) (UniProt Q07343); assay: qHTS Assay for Inhibitors of PDE-IV (AID 607; active means well fitted activation curve with a large enough effect in the main read-out, with a control signal flat, not every such curve was filed as active; inconclusive means small, poorly fitted or top-dose-only effect, or effect the other way, or a change in a side signal; further: potency means the concentration at half of the fitted maximal effect); details: HEK293 ACTOne CNG channel cells, membrane potential fluorescence; activation (PDE inhibition): at 22.9 µM (top of the series)
# How it was run: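 The readout is membrane depolarisation from a cAMP-sensing CNG channel, detected with a potential dye at ex 535/em 590. Cells were HEK293-derived (endogenous PDE-IV) at 1000 cells/well, titrated up to 22.9 uM final.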
# [8] = target: Ubiquitin carboxyl-terminal hydrolase 1 (Homo sapiens) (UniProt O94782); assay: Inhibitors of USP1/UAF1: Pilot qHTS (AID 504865);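 further: rhodamine fluorescence freed from ubiquitin-rhodamine substrate followed over time; potency means the concentration at half of the fitted maximal effect; nearly all actives have a fitted effect of over 35% in size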
# How it was run: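 Kinetic fluorescence assay: 1nM USP1/UAF1, 15 min compound preincubation, then 150nM Ub-Rho; 480/540 nm.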
# [9] = target: Cytochrome P450 1A2 (Homo sapiens) (UniProt P05177); assay: p450-cyp1a2 (AID 410; calls by dose curve;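 further: top concentration of the series differs between compounds; -100% = full effect of reference inhibitor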)
# How it was run: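 O-Demethylation of luciferin 6' methyl ether by human CYP1A2 is monitored as luciferase luminescence. Substrate sits at Km (100uM); enzyme is 20nM. Values are scaled to 57 uM furafylline as maximal inhibition.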
# [10] = target: Mitogen-activated protein kinase 10 (Mus musculus) (UniProt Q61831); assay: JNK3 AlphaScreen Assay (AID 530; active means well fitted curve in either direction with a large enough effect, not every such curve was filed as active; inconclusive means small, poorly fitted or top-dose-only effect, or another doubt;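 further: kinase came from lysate of stimulated human HepG2 cells; signal reports phosphorylation of biotinylated GST-cJun 1-79 at Ser73 with 10 µM ATP; potency means the concentration at half of the fitted maximal effect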); details: JNK3 lysate, c-Jun phosphorylation; activity change, negative = inhibition: at 57.1 µM (top of the series)
# How it was run: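 Phosphorylation of biotinylated GST-cJun(1-79) at Ser73 is measured by AlphaScreen proximity luminescence. Enzyme is JNK3 in HepG2 lysates activated with interleukin-1beta and tumor necrosis factor alpha; ATP is 10 uM final.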
# [11] = target: Cytochrome P450 2C9 (Homo sapiens) (UniProt P11712); assay: qHTS Assay for Inhibitors and Substrates of Cytochrome P450 2C9 (AID 883); further: on the % scale 0 is the no-effect control and ±100 the full control effect; nearly all actives have a fitted effect of over 60% in size
# How it was run: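 A luminogenic readout tracked human CYP2C9 (10nM) converting deoxyluciferin (100uM, at KM) in 25mM KPO4 during 60 min at 37C with regenerated NADPH. Values normalized to 57uM sulphaphenazole as complete inhibition.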
# [12] = qHTS Assay for Identification of Small Molecule Antagonists for NFkB Signaling Pathway (AID 895; active means well fitted inhibition curve with a large enough effect in the signal ratio, with a control signal flat, not every such curve was filed as active; inconclusive means small, poorly fitted or top-dose-only effect, or effect the other way, or a change in a side signal; the % refers to the signal ratio; further: potency means the concentration at half of the fitted maximal effect); details: NFkB beta-lactamase reporter cells, FRET ratio 460/530, stimulated with 10 pM TNF alpha; activity change, negative = inhibition: at 38.3 µM (top of the series)
# How it was run: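 NFkB-bla ME-180 cervical carcinoma cells with beta-lactamase reporter under NFkB response element; compounds added, then TNF alpha at 10 pM final (EC50), 5 h at 37 C. LiveBLAzer substrate 2 h, room temperature; emission 460/530 nm at 405 nm excitation.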
# [13] = qHTS Assay for Identification of Small Molecule Agonists for Thrombopoietin (TPO) Signaling Pathway (AID 917); further: potency means the concentration at half of the fitted maximal effect
# How it was run: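 Quantitative HTS for pathway activators: compounds were pin-transferred onto IL-3-starved Ba/F3 cells expressing human TPO receptor, TPO was added at its EC50 (26 pM final), and after 24 hrs at 37 C reporter luciferase was measured.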
# [14] = target: Muscarinic acetylcholine receptor M1 (Rattus norvegicus) (UniProt P08482); assay: qHTS Assay for Antagonists of Acetylcholine Muscarinic M1 Receptor: Measurement of IP-One Response (AID 944); further: potency means the concentration at half of the fitted maximal effect; nearly all actives have a fitted effect of over 75% in size
# Tags describe the fitted curve by direction and shape or compound fluorescence and quenching.
# UniProt P05177, sequence (P05177 whole entry, looked up): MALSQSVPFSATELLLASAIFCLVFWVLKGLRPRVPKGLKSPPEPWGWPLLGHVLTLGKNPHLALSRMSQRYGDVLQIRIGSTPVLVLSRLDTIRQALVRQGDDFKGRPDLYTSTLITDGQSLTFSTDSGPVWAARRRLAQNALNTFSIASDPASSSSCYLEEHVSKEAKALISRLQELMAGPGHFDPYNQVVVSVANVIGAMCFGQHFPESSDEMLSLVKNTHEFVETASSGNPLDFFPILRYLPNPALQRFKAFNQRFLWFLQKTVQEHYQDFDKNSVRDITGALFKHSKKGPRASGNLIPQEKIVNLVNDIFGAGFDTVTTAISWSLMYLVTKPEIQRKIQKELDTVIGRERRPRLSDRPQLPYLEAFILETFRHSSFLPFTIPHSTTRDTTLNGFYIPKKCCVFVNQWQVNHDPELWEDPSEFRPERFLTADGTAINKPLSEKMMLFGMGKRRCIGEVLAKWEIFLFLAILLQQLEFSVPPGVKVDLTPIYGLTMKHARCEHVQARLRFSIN
# UniProt Q07343, sequence (Q07343 whole entry, looked up): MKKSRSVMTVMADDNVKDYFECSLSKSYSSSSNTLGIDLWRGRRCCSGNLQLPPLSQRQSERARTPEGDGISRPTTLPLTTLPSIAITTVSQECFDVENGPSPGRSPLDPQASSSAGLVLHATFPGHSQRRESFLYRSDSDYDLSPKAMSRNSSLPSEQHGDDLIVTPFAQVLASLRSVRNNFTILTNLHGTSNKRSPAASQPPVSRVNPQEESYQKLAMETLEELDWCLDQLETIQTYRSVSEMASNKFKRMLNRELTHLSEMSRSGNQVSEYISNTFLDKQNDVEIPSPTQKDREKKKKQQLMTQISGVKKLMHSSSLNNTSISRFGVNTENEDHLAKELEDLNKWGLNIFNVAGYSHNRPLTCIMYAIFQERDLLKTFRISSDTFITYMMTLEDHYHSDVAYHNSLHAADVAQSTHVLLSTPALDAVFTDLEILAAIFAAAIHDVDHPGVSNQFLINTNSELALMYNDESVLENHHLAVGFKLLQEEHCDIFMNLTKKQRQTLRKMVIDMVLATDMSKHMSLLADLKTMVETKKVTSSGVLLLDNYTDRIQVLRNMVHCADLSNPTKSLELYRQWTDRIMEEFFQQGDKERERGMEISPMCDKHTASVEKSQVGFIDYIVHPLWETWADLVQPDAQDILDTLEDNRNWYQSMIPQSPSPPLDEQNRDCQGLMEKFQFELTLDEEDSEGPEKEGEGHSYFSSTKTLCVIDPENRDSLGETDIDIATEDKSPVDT
# UniProt P08482, sequence (P08482 whole entry, looked up): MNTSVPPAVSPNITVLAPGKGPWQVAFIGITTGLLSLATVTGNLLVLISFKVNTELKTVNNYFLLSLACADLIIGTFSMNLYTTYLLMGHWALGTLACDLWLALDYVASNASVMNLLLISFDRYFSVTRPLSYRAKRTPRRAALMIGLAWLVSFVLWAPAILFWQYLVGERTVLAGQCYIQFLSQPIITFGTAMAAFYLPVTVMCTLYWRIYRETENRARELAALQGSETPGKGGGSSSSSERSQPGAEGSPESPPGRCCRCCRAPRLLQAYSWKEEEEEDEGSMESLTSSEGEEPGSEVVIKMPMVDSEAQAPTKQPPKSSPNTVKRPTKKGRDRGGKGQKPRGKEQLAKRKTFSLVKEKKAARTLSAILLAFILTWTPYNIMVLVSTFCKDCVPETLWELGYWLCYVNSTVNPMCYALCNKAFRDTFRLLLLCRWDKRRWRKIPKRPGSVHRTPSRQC
# UniProt P11712, sequence (P11712 whole entry, looked up): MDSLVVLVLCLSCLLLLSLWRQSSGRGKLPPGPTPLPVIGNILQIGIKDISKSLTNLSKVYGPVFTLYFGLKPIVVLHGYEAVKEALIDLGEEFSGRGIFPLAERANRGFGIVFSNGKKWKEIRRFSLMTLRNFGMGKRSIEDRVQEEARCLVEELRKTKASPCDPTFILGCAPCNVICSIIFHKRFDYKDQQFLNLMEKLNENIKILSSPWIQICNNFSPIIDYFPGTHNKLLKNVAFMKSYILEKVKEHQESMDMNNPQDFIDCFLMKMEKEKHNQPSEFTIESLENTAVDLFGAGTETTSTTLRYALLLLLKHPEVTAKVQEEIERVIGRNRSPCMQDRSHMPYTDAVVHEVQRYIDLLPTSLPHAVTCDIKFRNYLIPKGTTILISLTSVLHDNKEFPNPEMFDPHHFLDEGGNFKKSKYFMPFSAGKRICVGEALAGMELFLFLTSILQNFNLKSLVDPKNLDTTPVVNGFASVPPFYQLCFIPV
# UniProt O94782, sequence (O94782 whole entry, looked up): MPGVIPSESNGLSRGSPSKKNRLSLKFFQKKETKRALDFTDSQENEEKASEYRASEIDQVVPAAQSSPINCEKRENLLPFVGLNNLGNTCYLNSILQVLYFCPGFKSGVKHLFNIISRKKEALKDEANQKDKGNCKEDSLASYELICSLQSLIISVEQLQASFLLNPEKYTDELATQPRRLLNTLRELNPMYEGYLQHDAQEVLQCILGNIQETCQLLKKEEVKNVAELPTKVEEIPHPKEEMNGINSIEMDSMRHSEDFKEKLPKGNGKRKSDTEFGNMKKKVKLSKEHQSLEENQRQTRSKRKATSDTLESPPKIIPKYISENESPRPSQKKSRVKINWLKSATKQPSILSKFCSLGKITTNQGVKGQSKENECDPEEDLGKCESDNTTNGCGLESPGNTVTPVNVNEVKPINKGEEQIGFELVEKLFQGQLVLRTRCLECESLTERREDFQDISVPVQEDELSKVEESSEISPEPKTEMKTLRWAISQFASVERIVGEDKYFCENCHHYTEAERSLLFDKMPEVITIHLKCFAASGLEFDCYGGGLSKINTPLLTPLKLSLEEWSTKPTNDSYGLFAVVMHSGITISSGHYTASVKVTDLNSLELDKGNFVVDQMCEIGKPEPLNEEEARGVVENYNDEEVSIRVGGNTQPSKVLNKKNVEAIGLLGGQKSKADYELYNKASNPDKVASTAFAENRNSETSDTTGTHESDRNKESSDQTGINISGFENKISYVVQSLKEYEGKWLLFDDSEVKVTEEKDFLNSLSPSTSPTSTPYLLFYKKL
compound,measurement,setting,value
COc1ccc(-c2nc3cnc(N4CCN(C)CC4)nc3n(-c3ccc(OC)cc3)c2=O)cc1,"activity change, negative = inhibition",[1],inconclusive: 59% [activator]
same,"activity, negative = inhibition",[2],inconclusive: 99.2% [activator]
same,Potency,[3],active: 3.16 µM
same,Potency,[4],inactive
same,Potency,[5],"inconclusive: 0.178 µM [rising, full curve, poor fit]"
same,Potency,[6],"inconclusive: 8.91 µM [inhibitor, partial curve, poor fit]"
COCCn1c(=O)c(-c2ccc(F)cc2)nc2cnc(OCc3ccccc3)nc21,"activity, negative = inhibition",[2],inconclusive: 0.956% [inhibitor]
same,Potency,[4],"inconclusive: 31.6 µM [inhibitor, partial curve, poor fit]"
same,Potency,[5],"inconclusive: 20 µM [cytotoxic, partial curve, poor fit]"
same,Potency,[6],"inconclusive: 10 µM [inhibitor, partial curve, poor fit]"
COc1ccc(Cl)cc1N=Nc1ncc[nH]1,Potency,[7],"inconclusive: 12 µM [inhibitor, partial curve, poor fit]"
same,Potency,[8],"inconclusive: 100 µM [inhibitor, single point]"
same,Potency,[4],active: 35.5 µM
same,Potency,[5],"inconclusive: 14.1 µM [cytotoxic, partial curve, poor fit]"
same,Potency,[6],"inconclusive: 7.08 µM [inhibitor, partial curve, poor fit]"
Oc1cc2c(cc1O)[C@H](c1ccccc1)CNCC2,Potency,[9],inactive
same,Potency,[10],"inconclusive: 2.51 nM [inhibitor, full curve, poor fit] and inconclusive: 39.8 µM [inhibitor, single point]"
same,Potency,[11],inactive
same,Potency,[12],"inconclusive: 11.2 µM [inhibitor, single point]"
same,Potency,[3],"inconclusive: 12.6 µM [inhibitor, partial curve]"
same,Potency,[13],"inconclusive: 15.8 µM [inhibitor, single point]"
same,Potency,[14],"inconclusive: 17.8 µM [inhibitor, partial curve, poor fit]"
same,Potency,[4],inactive
same,Potency,[5],"inconclusive: 10 µM [cytotoxic, partial curve]"
same,Potency,[6],"inconclusive: 2.24 µM [inhibitor, full curve]"
